Results from the supplement of paper PMC3334620.
Whole data set: some 33,000 sequences, median “E-score (-0.5 to 0.5)” near -0.04, cut for the highest 2% near 0.36. Some of the results follow.

Target: T1, Hmlalpha2 (UniProt P0CY09)
T1 sequence: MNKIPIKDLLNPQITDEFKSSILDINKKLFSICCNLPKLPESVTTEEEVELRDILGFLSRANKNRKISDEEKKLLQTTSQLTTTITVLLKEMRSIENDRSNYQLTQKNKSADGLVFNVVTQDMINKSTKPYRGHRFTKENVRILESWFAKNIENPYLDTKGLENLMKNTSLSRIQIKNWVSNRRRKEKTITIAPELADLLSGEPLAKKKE
Test: PBM E-score (8-mer binding enrichment) (E-score (-0.5 to 0.5)); higher = stronger / more preferred TF binding; most listed sequences are background and not binding sites
Conditions: protein concentration: 200 nM; construct: GST-full length
Experimental: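 Universal 'all 10-mer' protein binding microarrays (Agilent AMADID 015681) probed with GST-tagged S. cerevisiae TFs (full-length or DBD) made by in vitro transcription/translation (PURExpress), about 100-200 nM. Bound TF was detected with fluorescent anti-GST. Each ungapped 8-mer (which stands for itself and its reverse complement) is scored by the PBM enrichment score (E-score), a modified Wilcoxon-Mann-Whitney statistic from -0.5 to +0.5, computed with the Universal PBM Analysis Suite. Scale: above 0.35 generally sequence-specific binding.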

| Sequence | PBM E-score |
| --- | --- |
| CTTACATA | 0.426 |
| TACTTTCA | 0.0368 |
| CCGTCACA | -0.207 |
| ACGAAGGG | -0.0444 |
| CAGCCTTC | -0.301 |
| ACGTTGGA | 0.126 |
| AGTCCCGC | -0.314 |
| GTACTGGA | 0.165 |
| CCCTAACA | 0.246 |
| GAACGTAA | 0.242 |
| GAGTCTGC | -0.139 |
| AAGCTGTC | -0.143 |
| ACCTGCGC | -0.0923 |
| AGGGACGC | -0.185 |
| AGGCATCG | -0.146 |
| AACGAGAT | -0.00737 |
| AGGCCCTC | -0.321 |
| CCAAGTAC | 0.0274 |
| GATTCTCA | 0.00258 |
| AGAACGTC | 0.0127 |
| CTTCACTC | -0.0574 |
| AAAACACT | 0.148 |
| GGCTTACC | -0.29 |
| CGTTAAGC | 0.0573 |
| GAGGGCCA | -0.255 |

| Sequence | PBM E-score |
| --- | --- |
| AAAACGCC | 0.0828 |
| GCTATCTA | 0.177 |
| ACCTCTTC | -0.0525 |
| AGACTGGC | -0.211 |
| CTGTTGCA | -0.0465 |
| GACCTCAC | -0.119 |
| CATCGTTA | -0.118 |
| TCCCAGCA | -0.135 |
| ATTCATTA | 0.124 |
| CATTGTGG | -0.0779 |
| CGGTATAA | -0.0126 |
| CGGGTTTC | -0.0423 |
| AAGCCGTG | 0.0506 |
| AACAGATT | 0.0721 |
| CGGTTAAC | 0.118 |
| ATATCCTG | 0.00984 |
| AGGCCTAC | -0.00827 |
| TAGCCGCA | -0.196 |
| GTCATGGA | -0.188 |
| ACAAATGC | 0.118 |
| CGGAAACC | -0.29 |
| AGAAAACA | 0.259 |
| AAAGGACA | 0.0138 |
| AACGGGGT | -0.255 |
| GTAAAGAC | 0.258 |

| Sequence | PBM E-score |
| --- | --- |
| AGCAACCC | -0.204 |
| ATTAATTC | 0.208 |
| AGGGATCA | -0.131 |
| GTGAGAAC | -0.136 |
| CACTGAGC | -0.111 |
| CCCTCAAA | -0.158 |
| GCCCTGAC | 0.0421 |
| TACACTGA | 0.258 |
| GAAGCGAA | 0.112 |
| ACAGACTG | -0.0243 |
| TCACACGA | 0.325 |
| ATGATTAA | 0.164 |
| AGTATCGG | -0.0624 |
| ACATTCGT | 0.221 |
| CAATTAGG | 0.0235 |
| CTCCAATA | 0.00473 |
| ACAAAGGA | 0.0998 |
| ATCGGCCG | -0.174 |
| CACCTATA | 0.0244 |
| GACGGTAA | -0.176 |
| AGACGTCG | -0.158 |
| GATGGCGA | -0.147 |
| AGAATACA | 0.366 |
| AGGGCAGG | -0.218 |
| CGGGAGGA | -0.209 |

| Sequence | PBM E-score |
| --- | --- |
| ACCTGGCA | -0.091 |
| ATCTTATG | 0.0217 |
| ACTGGGTA | -0.033 |
| AAATTTCA | -0.00634 |
| GTAGACCA | -0.0544 |
| AATATCGT | 0.127 |
| TGCTAACA | 0.245 |
| ATTGGATA | -0.0251 |
| CGTTTCAA | 0.0417 |
| ACCAGTAT | -0.213 |
| GGGCACCC | -0.368 |
| TACCACTA | -0.0703 |
| AAGAAACA | 0.239 |
| ATCAAATC | 0.0221 |
| CAGGACAG | -0.125 |
| AATTGAGA | -0.0899 |
| CCGATTAC | 0.216 |
| GAGGCCAA | -0.12 |
| CGCCCGTA | -0.163 |
| CGCCTCGC | -0.21 |
| AGCTTGTC | 0.133 |
| ACCACGAG | -0.135 |
| ATTTATAG | 0.0217 |
| AATGATCG | -0.102 |
| ATGGGACA | -0.284 |

| Sequence | PBM E-score |
| --- | --- |
| GCACGGCC | -0.0358 |
| ACATTAGC | -0.00543 |
| ACTATGAT | -0.0386 |
| ACTTACTC | 0.088 |
| CATTAGAA | 0.155 |
| CATAAGTA | 0.0775 |
| CGACCGCG | -0.135 |
| ACACACCT | 0.303 |
| GAAATAAA | 0.0795 |
| CGCCTGAG | -0.185 |
| CAAACTGA | -0.0714 |
| AATGGTAA | 0.2 |
| CCACCCCA | -0.123 |
| ATATTACG | 0.352 |
| CGGACGCA | -0.241 |
| ACGATGAG | 0.0592 |
| GTGTGCAA | 0.2 |
| GAGACATA | 0.103 |
| CGATCACA | 0.213 |
| CCCTAATA | -0.0852 |
| GCTGTTGA | 0.102 |
| GCATTCAA | -0.0147 |
| ACTCCCAA | -0.103 |
| CTCGAAAG | -0.11 |
| CTAGACAG | -0.125 |

| Sequence | PBM E-score |
| --- | --- |
| CGTTCTAG | 0.0456 |
| ACTAGTAC | 0.103 |
| CTACAGCA | 0.0682 |
| CAATGACA | 0.199 |
| GAGACCAA | -0.0901 |
| AATTAAGA | 0.0633 |
| GCCTTTTA | 0.0441 |
| ACTAAAAA | 0.0631 |
| GATCTTCA | -0.0644 |
| CAGAAATG | 0.0916 |
| GGGTGAGA | -0.33 |
| CGGTTCAG | -0.355 |
| AAGGCTTC | -0.116 |
| CTCCCGAC | -0.243 |
| GCGCAGAC | -0.134 |
| CCTTTCAA | -0.0729 |
| CCAGAAGA | -0.163 |
| ACGCGATG | 0.252 |
| CGACTCTA | -0.187 |
| ATGATAGA | -0.00252 |
| CCTACAAG | 0.0596 |
| GAGAGATA | -0.0891 |
| ACCAAACA | 0.278 |
| CACCACAG | -0.0337 |
| CCCTGACC | 0.00293 |

| Sequence | PBM E-score |
| --- | --- |
| ACAGCCCC | -0.153 |
| AGGATCAC | -0.0278 |
| CCCTCAAG | -0.264 |
| CTCGGTGA | -0.194 |
| CTGACGTA | 0.0475 |
| CCATCAGA | -0.289 |
| ACCTCAAC | 0.0338 |
| CAAAGAAC | 0.131 |
| GTATAGAA | 0.0731 |
| ATGAACGG | -0.0321 |
| AGTGATCG | -0.0738 |
| CTAGCGTC | -0.191 |
| ACTGTATA | 0.0991 |
| GAAAGGCA | -0.0479 |
| CAACCTAA | 0.144 |
| GGAGTGGA | -0.162 |
| CATGAAAC | 0.0721 |
| ATCTGTAC | 0.167 |
| ACGGCGAA | 0.11 |
| TACGTCCA | -0.0183 |
| GTCGACGA | 0.0877 |
| CCCTGGTA | -0.144 |
| ATACCATA | 0.085 |
| TGGACGAA | 0.0765 |
| ACGCCCGT | 0.00563 |

| Sequence | PBM E-score |
| --- | --- |
| CGTTGAGC | 0.0973 |
| AGCTATGG | -0.305 |
| CGACACCG | -0.127 |
| CATTAAGG | 0.0313 |
| AAATAACT | 0.296 |
| CTGGTGCC | -0.0672 |
| CGGACTTC | -0.221 |
| TAAAATAA | 0.135 |
| GCTCGACC | -0.0938 |
| ACAGTAAT | 0.182 |
| GGACAGTA | 0.0315 |
| CTGCTTTA | 0.0867 |
| CACCTGAA | 0.0464 |
| CACCTATC | -0.0688 |
| TCGGTTCA | -0.0617 |
| CTACCGGA | -0.301 |
| ATTCTGCG | -0.0308 |
| GATGCTCA | -0.178 |
| AATCTGGC | -0.053 |
| AACGAGCG | 0.124 |
| AAGTCGCG | 0.111 |
| GGCCTGAA | -0.248 |
| CAATCAAC | 0.268 |
| ACTTGTCG | -0.125 |
| GGAAACCA | -0.239 |

| Sequence | PBM E-score |
| --- | --- |
| AAATGTAA | 0.394 |
| AGTTTCTC | -0.0579 |
| GAAGGACA | 0.188 |
| ACAGCGTA | 0.096 |
| ACTCTACG | 0.0737 |
| AGTGACAG | -0.0463 |
| GATCAGAA | -0.278 |
| ATACCCCG | -0.223 |
| AAGGGCAA | -0.207 |
| CATTCAGC | -0.0801 |
| CATGTCCA | 0.206 |
| CTACCCAA | -0.134 |
| GTCGCGCA | -0.0287 |
| CTACAAAG | 0.156 |
| CAGCTATG | -0.0447 |
| CATGGACA | 0.186 |
| AACAGGCG | -0.0316 |
| GCGTGGCA | -0.25 |
| CAGTGTTA | 0.212 |
